According to the supplement of paper PMC9927326:
MIC of clinical C. albicans isolates, CLSI broth microdilution (ranges and time not stated); higher = less susceptible. Call: susceptible or wild type [S] / resistant or non-wild type [R] by CLSI breakpoints or epidemiological cut-offs; intermediate and dose-dependent carry no call here (the paper groups them with resistant). '<=' and '>=' mark each drug's lowest and highest value, inferred; the source prints them plain. Isolates are numbered anew.

Assays:
Assay in all cases: CLSI broth microdilution.
[1] = compound: Nc1[nH]c(=O)ncc1F [flucytosine]
[2] = compound: C[C@@H](c1ncncc1F)[C@](O)(Cn1cncn1)c1ccc(F)cc1F [voriconazole]
[3] = compound: CCC(C)n1ncn(-c2ccc(N3CCN(c4ccc(OCC5COC(Cn6cncn6)(c6ccc(Cl)cc6Cl)O5)cc4)CC3)cc2)c1=O [itraconazole]
[4] = compound: CC[C@@H]([C@H](C)O)n1ncn(-c2ccc(N3CCN(c4ccc(OC[C@@H]5CO[C@@](Cn6cncn6)(c6ccc(F)cc6F)C5)cc4)CC3)cc2)c1=O [posaconazole]
[5] = compound: CCCCCOc1ccc(-c2cc(-c3ccc(C(=O)N[C@H]4C[C@@H](O)[C@@H](O)NC(=O)[C@@H]5[C@@H](O)[C@@H](C)CN5C(=O)[C@H]([C@H](O)CC(N)=O)NC(=O)[C@H]([C@H](O)[C@@H](O)c5ccc(O)c(OS(=O)(=O)O)c5)NC(=O)[C@@H]5C[C@@H](O)CN5C(=O)[C@H]([C@@H](C)O)NC4=O)cc3)no2)cc1 [micafungin]
[6] = compound: CCCCCOc1ccc(-c2ccc(-c3ccc(C(=O)N[C@H]4C[C@@H](O)[C@@H](O)NC(=O)[C@@H]5[C@@H](O)[C@@H](C)CN5C(=O)[C@H]([C@@H](C)O)NC(=O)[C@H]([C@H](O)[C@@H](O)c5ccc(O)cc5)NC(=O)[C@@H]5C[C@@H](O)CN5C(=O)[C@H]([C@@H](C)O)NC4=O)cc3)cc2)cc1 [anidulafungin]
[7] = compound: CC[C@H](C)C[C@H](C)CCCCCCCCC(=O)N[C@H]1C[C@@H](O)[C@@H](NCCN)NC(=O)[C@@H]2[C@@H](O)CCN2C(=O)[C@H]([C@H](O)CCN)NC(=O)[C@H]([C@H](O)[C@@H](O)c2ccc(O)cc2)NC(=O)[C@@H]2C[C@@H](O)CN2C(=O)[C@H]([C@@H](C)O)NC1=O [caspofungin]
[8] = compound: C[C@@H]1[C@H](O)[C@@H](C)/C=C/C=C/C=C/C=C/C=C/C=C/C=C/[C@H](O[C@@H]2O[C@H](C)[C@@H](O)[C@H](N)[C@@H]2O)C[C@@H]2O[C@](O)(C[C@@H](O)C[C@@H](O)[C@H](O)CC[C@@H](O)C[C@@H](O)CC(=O)O[C@H]1C)C[C@H](O)[C@H]2C(=O)O [amphotericin B]
[9] = compound: OC(Cn1cncn1)(Cn1cncn1)c1ccc(F)cc1F [fluconazole]

| Test System | MIC [1] | MIC [2] | MIC [3] | MIC [4] | MIC [5] | MIC [6] | MIC [7] | MIC [8] | MIC [9] |
| --- | --- | --- | --- | --- | --- | --- | --- | --- | --- |
| Candida albicans isolate 167 (Erg11p: E266D, Fur1p: WT, Tac1p: N896S,M170V,S108N) | ≤ 0.06 mg/L [S] | ≤ 0.008 mg/L [S] | 0.03 mg/L [S] | 0.015 mg/L [S] | 0.015 mg/L [S] | 0.06 mg/L [S] | 0.03 mg/L [S] | 0.25 mg/L [S] | 0.25 mg/L [S] |
| Candida albicans isolate 168 (Erg11p: H283L,E266D, Fur1p: WT, Tac1p: I558V) | ≤ 0.06 mg/L [S] | ≤ 0.008 mg/L [S] | ≤ 0.015 mg/L [S] | 0.015 mg/L [S] | ≤ 0.008 mg/L [S] | 0.12 mg/L [S] | 0.03 mg/L [S] | 0.5 mg/L [S] | 0.5 mg/L [S] |
| Candida albicans isolate 169 (Erg11p: V488I,E266D, Fur1p: WT, Tac1p: N896S,I895T) | ≤ 0.06 mg/L [S] | ≤ 0.008 mg/L [S] | ≤ 0.015 mg/L [S] | 0.015 mg/L [S] | 0.015 mg/L [S] | 0.03 mg/L [S] | 0.03 mg/L [S] | 0.25 mg/L [S] | 0.25 mg/L [S] |
| Candida albicans isolate 170 (Erg11p: G465S,Y132H, Fur1p: R101C, Tac1p: WT) | 0.5 mg/L [S] | 0.12 mg/L [S] | 0.06 mg/L [S] | 0.015 mg/L [S] | 0.03 mg/L [S] | ≤ 0.015 mg/L [S] | 0.03 mg/L [S] | 0.5 mg/L [S] | 1 mg/L [S] |
| Candida albicans isolate 171 (Erg11p: E266D, Fur1p: WT, Tac1p: N896S) | 0.12 mg/L [S] | 0.03 mg/L [S] | 0.06 mg/L [S] | 0.06 mg/L [S] | 0.015 mg/L [S] | 0.03 mg/L [S] | 0.06 mg/L [S] | 0.5 mg/L [S] | 2 mg/L [S] |
| Candida albicans isolate 172 (Erg11p: E266D,G129A, Fur1p: WT, Tac1p: R869Q,L695F,I558V,A377V,F189S,M170V,L131I) | ≤ 0.06 mg/L [S] | ≤ 0.008 mg/L [S] | 0.06 mg/L [S] | 0.03 mg/L [S] | 0.015 mg/L [S] | 0.06 mg/L [S] | 0.12 mg/L [S] | 0.5 mg/L [S] | 0.5 mg/L [S] |
| Candida albicans isolate 173 (Erg11p: V488I,E266D, Fur1p: WT, Tac1p: N896S,T229I,M170V,S108N) | ≤ 0.06 mg/L [S] | 0.015 mg/L [S] | 0.06 mg/L [S] | 0.03 mg/L [S] | 0.015 mg/L [S] | 0.03 mg/L [S] | 0.03 mg/L [S] | 0.25 mg/L [S] | 1 mg/L [S] |
| Candida albicans isolate 174 (Erg11p: V488I,E266D, Fur1p: WT, Tac1p: M170V,S108N) | 0.12 mg/L [S] | ≤ 0.008 mg/L [S] | 0.06 mg/L [S] | 0.03 mg/L [S] | 0.015 mg/L [S] | 0.06 mg/L [S] | 0.03 mg/L [S] | 0.5 mg/L [S] | 0.5 mg/L [S] |
| Candida albicans isolate 175 (Erg11p: Y132H,T123I, Fur1p: R101C, Tac1p: WT) | 0.12 mg/L [S] | 0.25 µg/mL | 0.06 mg/L [S] | 0.03 mg/L [S] | 0.015 mg/L [S] | ≤ 0.015 mg/L [S] | 0.015 mg/L [S] | 0.25 mg/L [S] | 4 µg/mL |
| Candida albicans isolate 176 (Erg11p: WT, Fur1p: WT, Tac1p: WT) | ≤ 0.06 mg/L [S] | ≤ 0.008 mg/L [S] | ≤ 0.015 mg/L [S] | 0.015 mg/L [S] | ≤ 0.008 mg/L [S] | ≤ 0.015 mg/L [S] | 0.015 mg/L [S] | 0.25 mg/L [S] | 0.5 mg/L [S] |
| Candida albicans isolate 177 (Erg11p: V488I,E266D, Fur1p: WT, Tac1p: N896S,A377V,F189S,N174D,M170I,K87N) | ≤ 0.06 mg/L [S] | 0.015 mg/L [S] | 0.03 mg/L [S] | 0.015 mg/L [S] | 0.015 mg/L [S] | ≤ 0.015 mg/L [S] | 0.03 mg/L [S] | 0.5 mg/L [S] | 0.5 mg/L [S] |
| Candida albicans isolate 178 (Erg11p: V488I,E266D, Fur1p: WT, Tac1p: N896S,I895T) | 0.12 mg/L [S] | ≤ 0.008 mg/L [S] | 0.03 mg/L [S] | 0.03 mg/L [S] | 0.015 mg/L [S] | ≤ 0.015 mg/L [S] | 0.03 mg/L [S] | 0.5 mg/L [S] | 0.25 mg/L [S] |
| Candida albicans isolate 179 (Erg11p: V488I,E266D, Fur1p: WT, Tac1p: N896S) | ≤ 0.06 mg/L [S] | 0.03 mg/L [S] | 0.12 mg/L [S] | 0.06 mg/L [S] | 0.015 mg/L [S] | ≤ 0.015 mg/L [S] | 0.06 mg/L [S] | 0.5 mg/L [S] | 2 mg/L [S] |
| Candida albicans isolate 180 (Erg11p: E266D,G129A, Fur1p: WT, Tac1p: R869Q,L695F,I558V,A377V,F189S,M170V,L131I) | ≤ 0.06 mg/L [S] | ≤ 0.008 mg/L [S] | 0.03 mg/L [S] | 0.015 mg/L [S] | ≤ 0.008 mg/L [S] | 0.06 mg/L [S] | 0.03 mg/L [S] | 0.5 mg/L [S] | 0.5 mg/L [S] |
| Candida albicans isolate 181 (Erg11p: WT, Fur1p: WT, Tac1p: N896S) | ≤ 0.06 mg/L [S] | ≤ 0.008 mg/L [S] | ≤ 0.015 mg/L [S] | 0.015 mg/L [S] | ≤ 0.008 mg/L [S] | ≤ 0.015 mg/L [S] | 0.015 mg/L [S] | 0.5 mg/L [S] | 0.25 mg/L [S] |
| Candida albicans isolate 182 (Erg11p: V488I,E266D, Fur1p: WT, Tac1p: N896S) | ≤ 0.06 mg/L [S] | 0.015 mg/L [S] | 0.06 mg/L [S] | 0.03 mg/L [S] | ≤ 0.008 mg/L [S] | ≤ 0.015 mg/L [S] | 0.03 mg/L [S] | 0.25 mg/L [S] | 0.5 mg/L [S] |
| Candida albicans isolate 183 (Erg11p: V488I,V362I,E266D, Fur1p: WT, Tac1p: N896S,S410G,M170V,S108N) | ≤ 0.06 mg/L [S] | ≤ 0.008 mg/L [S] | 0.03 mg/L [S] | 0.015 mg/L [S] | 0.015 mg/L [S] | 0.12 mg/L [S] | 0.06 mg/L [S] | 0.5 mg/L [S] | 0.25 mg/L [S] |
